Laboratory results reported in the RNAGym collection of RNA variant scans (doi:10.1073/pnas.2313332121).
Variants at the floor of the assay are shown more often than the library holds them.

B1: TPR 5TU (parent)
chain: GGAUCUUCUCGAUCUAACAAAAAAGACAAAUCUGCCACAAAGCUUGAGAGCAUCUUCGGAUGCAGAGGCGGCAGCCUUCGGUGGCGCGAUAGCGCCAACGUUCUCAACUAUGACACGCAAAACGCGUGCUCCGUUGAAUGGAGUUUAUCAUG

Variants of: B1
Assay: polymerase ribozyme fitness, log enrichment relative to wild type (log ratio); higher = more active; in vitro selection for triplet polymerase activity
Method in brief: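 Each subunit of a heterodimeric triplet polymerase ribozyme was mutagenized into a library by PCR, transcribed, and subjected to one round of in vitro selection, run in triplicate. Libraries were annealed with a biotinylated primer, the partner subunit and triplets, incubated frozen at −7 °C, and extended constructs were gel-excised, captured on streptavidin beads and recovered by RT-PCR. Input and output libraries were sequenced on Illumina, keeping genotypes with ≥10 input reads and ≥1 read per output. Fitness is log base 2 of genotype enrichment divided by wild-type enrichment, from inverse-variance-weighted replicate averages.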

Variant	polymerase ribozyme fitness (log ratio)
G42C G48C C85A	≤ -4.2
G42C G48C C87A G88C G141U	≤ -4.2
G42C G50A C75U G88A U90A C99A A107G C108G U109C C118A A150G	≤ -4.2
G42C G50A G65A G71C G81A U90C	≤ -4.2
G42C G50U U61G G86A C114A	≤ -4.2
G42C G58C A91G A107C A113G	≤ -4.2
G42C G58C C96G	≤ -4.2
G42C G59C G117U U146A	≤ -4.2
G42C G62A G65U G83C G92A G141A	≤ -4.2
G42C G62A G68A U101G	≤ -4.2
G42C G62U A64C G71A C79G C132G U139G U146G	≤ -4.2
G42C G62U C123G G124C	≤ -4.2
G42C G68C G88C A107G C118U	≤ -4.2
G42C G70C C93G C129A U151G	≤ -4.2
G42C G70U C87A C103G G141A	≤ -4.2
G42C G74A G92U C103G C116U	≤ -4.2
G42C G84A	≤ -4.2
G42C G84C C85A G86A G92C	≤ -4.2
G42C G86C	≤ -4.2
G42C G86U	≤ -4.2
G42C G86U U109G G141U	≤ -4.2

Variant	polymerase ribozyme fitness (log ratio)
G42C G88A U134A U146A	≤ -4.2
G42C G94A G143A	≤ -4.2
G42C G94A U102A C118U U135C	≤ -4.2
G42C U44A A52G G70U G83C	≤ -4.2
G42C U44A C72U C75U C96A G136A	≤ -4.2
G42C U44A U90G G140U A147U	≤ -4.2
G42C U44G A49U U56C G94U U111C G143A	≤ -4.2
G42C U44G A106G	≤ -4.2
G42C U45A G48U A49C C75U C118G U144C	≤ -4.2
G42C U45A U78G C79U G80C G84A	≤ -4.2
G42C U45G U146C	≤ -4.2
G42C U53A C99U	≤ -4.2
G42C U53G C75G C76A C85A U127C U144A	≤ -4.2
G42C U53G U145G	≤ -4.2
G42C U55A A60U C87U A115U	≤ -4.2
G42C U55A A73U G83C G84A G88U	≤ -4.2
G42C U55A C76G C85G U90C A97U U102C	≤ -4.2
G42C U55A C93A U146A	≤ -4.2
G42C U55A G92C A115U A150U	≤ -4.2
G42C U55G U56C C69U C95G A142U U145C A150U	≤ -4.2
G42C U56A A89U C93G	≤ -4.2

Variant	polymerase ribozyme fitness (log ratio)
G42C U56A G86A A91C U111A G143C	≤ -4.2
G42C U61A G74A C87U U134C	≤ -4.2
G42C U61A U77G G86C U134G G140C	≤ -4.2
G42C U61A U101A A119C	≤ -4.2
G42C U61C G62U G83C A119G	≤ -4.2
G42C U61G A91G G92U	≤ -4.2
G42C U77G G86A G88U U145C	≤ -4.2
G42C U101G G136U	≤ -4.2
G42C U104G C118G G136A	≤ -4.2
G42C U148C	≤ -4.2
G42U A52C C93U	≤ -4.2
G42U A52G G117A	≤ -4.2
G42U A52G U55A C95U	≤ -4.2
G42U A60G U139C U148A	-4.08
G42U A64G A66U C79G C95U C103U A113U	≤ -4.2
G42U A64U G83A C87U U101G C116A	≤ -4.2
G42U A66C	≤ -4.2
G42U A66C C95A G143A U144G	≤ -4.2
G42U A121U	≤ -4.2
G42U C51U G58C A150C	≤ -4.2
G42U C54U C75G G86U A91G C96A C125A	≤ -4.2

Variant	polymerase ribozyme fitness (log ratio)
G42U C54U C85G G124U	≤ -4.2
G42U C57A	≤ -4.2
G42U C57A C96G C108U	≤ -4.2
G42U C69G	≤ -4.2
G42U C76A G86C A120G G124C U144C	≤ -4.2
G42U C85A C99U C108G A110G	≤ -4.2
G42U C87A A98U C99U G141C	≤ -4.2
G42U C99A G136C U139A	≤ -4.2
G42U G46C A64G G81U C87G C125U	≤ -4.2
G42U G48C G62C C96A G140U	≤ -4.2
G42U G59A C87U C149G	≤ -4.2
G42U G59U G92U G126A U135A U144A	≤ -4.2
G42U G62U C132U	≤ -4.2
G42U G67A	≤ -4.2
G42U G74C	≤ -4.2
G42U G81A C123A A138G G140C G143A	≤ -4.2
G42U G83A A142G	≤ -4.2
G42U G83C C85A G124A U148G	≤ -4.2
G42U G86U C108U A115U C125U U145C	≤ -4.2
G42U U45G C69U C93U	≤ -4.2
G42U U55A A73U C79A A91C C95U C132U	≤ -4.2
